# From PubChem BioAssay AID1745845 (National Center for Advancing Translational Sciences (NCATS), 2022)
# Hit rate of the full screen: of about 360,000 compounds, about 2,600 (0.72%) were called active. This list was built around the results that the source calls inconclusive (neither active nor inactive); the mix of calls is not that of the screen. Calls come from the whole dose curve; as a rule, active = well fitted inhibition curve with a large enough effect; inconclusive = small, poorly fitted or top-dose-only effect; inactive = no such curve, though single readings can be large or run the other way. Potencies beside an inconclusive call are fits to weak or partial responses and may not hold up.
# Experiment: Primary qHTS for Inhibitors of ATXN expression; note: nearly all actives have a fitted effect of over 55% in size
# Settings: HEK-293 ATXN2-luciferase reporter, luminescence, 24 h; series mostly up to 57 µM
# Method in brief: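 ATXN2-luciferase reporter cells (luciferase flanked by upstream and downstream ATXN2 gene portions) were treated 24 h at 37 °C with compounds at up to 57 uM. SteadyGlo luminescence gave expression; GF-AFC fluorescence gave viability.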
# Potency is the fitted concentration of half-maximal effect; tags give direction and shape of the fitted curve.
row,Structure (SMILES),Potency
1,Cc1nn(CC(=O)Nc2ccccn2)c(C)c1Br,inactive
2,CSCC(=O)N1CCCC(CNC(=O)c2ccc(-c3ccccc3)cc2)C1 (stereo unspecified),"inconclusive: 31.6 µM [inhibitor, partial curve, poor fit]"
3,COC(=O)c1sc(-c2ccc(Cl)cc2)cc1N,inactive
4,O=C1C=Cc2cccc3ccc(O)c1c23,active: 7.08 µM
5,CCOc1ccccc1-c1nc(-c2ccc(NC(=O)Cc3ccc(OC)cc3)cc2)no1,"inconclusive: 15.8 µM [inhibitor, partial curve]"
6,CCN1CCN(CCCOc2ccc(-c3ccccc3)cc2)CC1,"inconclusive: 39.8 µM [inhibitor, single point]"
7,CCOC(=O)c1ccc(N2C(=O)c3[nH]nc(-c4ccc(C)cc4)c3C2c2cccs2)cc1 (stereo unspecified),"inconclusive: 28.2 µM [inhibitor, single point]"
8,O=C(NC1CCCCC1)N1CCN(C(c2ccccc2)c2ccccc2)CC1,"inconclusive: 39.8 µM [inhibitor, single point]"
9,Cc1ccccc1-c1nnc(SCC(=O)Nc2cccnc2Cl)o1,"inconclusive: 11.2 µM [inhibitor, single point]"
10,O=C1CCC(=O)N(O)CCCCCNC(=O)CCC(=O)N(O)CCCCCNC(=O)CCC(=O)N(O)CCCCCN1,"inconclusive: 35.5 µM [inhibitor, single point]"
11,Cc1nc2c(Br)cc(Br)cc2c(=O)n1-c1ccccc1NC1OCC(O)C(O)C1O (stereo unspecified),"inconclusive: 31.6 µM [inhibitor, partial curve, poor fit]"
12,O=C(COc1ccc([N+](=O)[O-])cc1)N1CCc2ccccc2C1,inactive
13,Cc1cc(C(C)(C)C)oc1C(=O)N(CC(=O)NC1CCCC1)c1c(C)cccc1C,"inconclusive: 39.8 µM [inhibitor, single point]"
14,CN(C)S(=O)(=O)N1CCC(Oc2ccc(C(=O)NCc3cnn(C)c3)cc2)CC1,inactive
15,CCOc1ccc(C2=CS/C(=C(\C#N)c3nnc4n3CCCCC4)N2CC)cc1,"inconclusive: 25.1 µM [inhibitor, single point]"
16,N=C1N=C(N)c2cc3ccccc3cc21,active: 17.8 µM
17,Cc1ccn2c(NCc3ccccc3)c(-c3cccc(SC4CCCCC4)c3)nc2c1,"inconclusive: 35.5 µM [inhibitor, single point]"
18,CCn1ccc(=N)cc1,inactive
19,NC(Cc1ccc(Cl)cc1)c1csc(NC(=O)NCCc2ccccc2)n1 (stereo unspecified),"inconclusive: 39.8 µM [inhibitor, single point]"
20,CCc1ccc2oc(=O)cc(CN3CCN(c4ccc(F)cc4)CC3)c2c1,"inconclusive: 39.8 µM [inhibitor, partial curve, poor fit]"
21,CCCCNC(=O)C1CCC(Cn2c(=O)c3sccc3n(Cc3ccccc3)c2=O)CC1 (stereo unspecified),inactive
22,CS(=O)(=O)c1ccc(S(=O)CC(=O)Oc2ccc(Cl)cc2)c([N+](=O)[O-])c1 (stereo unspecified),"inconclusive: 39.8 µM [inhibitor, single point]"
23,CC(C)n1c(=O)c2ccccc2n1Cc1cn(-c2ccc(Cl)cc2)nn1,inactive
24,COc1ccc(-c2nc3ccccc3n3c(-c4cccc(C)c4)c4c(=O)n(C)c(=O)n(C)c4c23)cc1OC,"inconclusive: 31.6 µM [inhibitor, single point]"

row,Structure (SMILES),Potency
1,COc1ccc(-n2c(-c3ccc(Cl)cc3)c[n+]3c2CCCCC3)cc1,"inconclusive: 33.6 µM [inhibitor, partial curve, poor fit]"
2,COc1ccc(C(=O)O/N=C(\N)c2ccccn2)c(OC)c1,"inconclusive: 37.7 µM [inhibitor, single point]"
3,Cc1cc(Cl)cc2sc(NC(=O)c3ccco3)nc12,inactive
4,CC[C@]12c3[nH]c4ccc(Cl)cc4c3CCN1C(=O)[C@@H](CC(=O)NCc1cccc(C(F)(F)F)c1)C[C@@H]2C(=O)N1CCN(C(=O)c2ccco2)CC1,"inconclusive: 39.8 µM [inhibitor, single point]"
5,CCN(CC)c1ncnc2c1ncn2[C@H]1CN(Cc2ccc(OC)cc2)C[C@@H](CO)O1,inactive
6,O=C(NCCN1CCN(c2ccccc2F)CC1)C1c2ccccc2C(=O)N2CCc3ccccc3C12 (stereo unspecified),inactive
7,CCC1CCCCN1S(=O)(=O)c1ccc(NC(=O)c2nc(S(C)(=O)=O)ncc2Cl)cc1 (stereo unspecified),active: 15.8 µM
8,COc1ccccc1CNC(=O)c1cc2c(=O)oc3ccc(C)cc3c2s1,inactive
9,CCc1nc2ccccc2c(C(=O)OCC(=O)N2CC(C)OC(C)C2)c1C (stereo unspecified),inactive
10,COc1ccc(C(=O)NCCN(C)C)c2nc3ccccc3cc12,active: 3.36 µM
11,CCOc1ccccc1N1CCN(C(=O)c2ccc(Cl)c(S(=O)(=O)N3CCCCC3)c2)CC1,"inconclusive: 28.2 µM [inhibitor, single point]"
12,CCCNc1c(NS(=O)(=O)c2ccc(Br)cc2)c(=O)oc2ccccc12,inactive
13,Cc1ccc2ccc3ccc(C)nc3c2n1,"inconclusive: 0.158 µM [inhibitor, full curve, poor fit]"
14,Cc1ccc(NC(=O)NCC2CCN(Cc3cc(C)ccc3Cl)CC2)c(C)c1,"inconclusive: 35.5 µM [inhibitor, partial curve]"
15,C=CCNC(=S)Nc1ccc(C)c(S(=O)(=O)N2CCCCC2)c1,inactive
16,CCOc1cc(C=C(C(=O)OC)C(=O)OC)ccc1OCc1ccc([N+](=O)[O-])cc1,active: 31.6 µM
17,O=C1C=C(Nc2ccccc2)c2ccccc2C1=O,"inconclusive: 15.8 µM [inhibitor, partial curve, poor fit]"
18,O=C(O)c1ccc(N/N=C/c2ccc3ncccc3c2)cc1,"inconclusive: 7.08 µM [inhibitor, partial curve, poor fit]"
19,Cc1cc(N2CCN(C)CC2)nc2ccc(NC(=S)NCCCN3CCc4ccccc4C3)cc12,active: 31.6 µM
20,CCOc1ccc(NS(=O)(=O)c2cccc(C(=O)N3CCN(C/C=C/c4ccccc4)CC3)c2)cc1,"inconclusive: 28.2 µM [inhibitor, partial curve, poor fit]"
21,O=[N+]([O-])c1ccc(O)c(Nc2ncnc3ccc(Br)cc23)c1,"inconclusive: 17.8 µM [inhibitor, partial curve, poor fit]"
22,O=[N+]([O-])c1ccc(N=Nc2ccc(O)cc2O)cc1,"inconclusive: 12.6 µM [inhibitor, partial curve, poor fit]"
23,Cc1cccc(NC(=O)COc2ccc(-c3nn(C)c(=O)c4ccccc34)cc2)c1,"inconclusive: 14.1 µM [inhibitor, partial curve, poor fit]"
24,Cc1cccc2c1-c1sc(C(=O)NCCCN3CCCC(C)C3)cc1CO2 (stereo unspecified),active: 35.5 µM

row,Structure (SMILES),Potency
1,C(=NN1CCCCCC1)c1ccc2ccccc2n1,"inconclusive: 39.8 µM [inhibitor, partial curve, poor fit]"
2,COc1cccc(Cn2c(NCc3cccnc3)nc3c2c(=O)n(C)c(=O)n3C)c1,"inconclusive: 6.31 µM [inhibitor, partial curve, poor fit]"
3,CC(=O)c1ccc(NS(=O)(=O)c2ccc3[nH]c4c(c3c2)CCCC4)cc1,"inconclusive: 31.6 µM [inhibitor, single point]"
4,CCCS(=O)(=O)N1CCN(Cc2ccccc2OCC)CC1,inactive
5,O=S(=O)(c1ccccc1)N(Cc1nc(-c2ccccc2)no1)C1CCCCC1,inactive
6,O=S1(=O)CCOC[C@H](c2ccccc2)N1Cc1ccccc1,inactive
7,Cc1ccsc1/C=C1\CCc2ccccc2C1=O,inactive
8,C(=C\c1nc(-c2ccccc2)no1)/c1ccccc1,inactive
9,O=C(c1ccc(Br)cc1)C(CN1CCOCC1)c1ccccc1 (stereo unspecified),active: 26.7 µM
10,COC(=O)Nc1ccc(-c2nc(N3CCOCC3)c3cnn(C4CCN(Cc5cccnc5)CC4)c3n2)cc1,"inconclusive: 24.3 µM [inhibitor, partial curve]"
11,Cc1ccccc1/C(N)=N/OC(=O)N1c2ccccc2Sc2ccccc21,"inconclusive: 31.6 µM [inhibitor, partial curve, poor fit]"
12,O=C(Nc1cccc(C(F)(F)F)c1)C1Cc2c(-c3cccc(F)c3)ccnc2O1 (stereo unspecified),"inconclusive: 28.2 µM [inhibitor, single point]"
13,O=C(O)CCSc1nc2ccccc2n1Cc1ccccc1,inactive
14,CCOc1ccccc1NC(=O)/C=C/C(N)=O,"inconclusive: 39.8 µM [inhibitor, single point]"
15,O=[N+]([O-])c1cccc(NC(=S)NCc2ccncc2)c1,inactive
16,COc1ccc(CNCCC(c2ccc3c(c2)OCO3)c2ccccc2OC)cc1 (stereo unspecified),"inconclusive: 25.1 µM [inhibitor, single point]"
17,COc1ccc(Cn2cc(C(=O)c3ccc(C)c(C)c3)c(=O)c3ccccc32)cc1,"inconclusive: 25.1 µM [inhibitor, single point]"
18,Cc1cccc(NC(=O)CCC(=O)N/N=C/c2cc([N+](=O)[O-])ccc2O)c1,"inconclusive: 14.1 µM [inhibitor, partial curve, poor fit]"
19,CCOc1nc(C#N)nc(N2CCCCC2)n1,"inconclusive: 35.5 µM [inhibitor, single point]"
20,Cc1ccc(S(=O)(=O)/N=C2\C=C(Nc3ccc(O)cc3)C(=O)c3ccccc32)cc1,active: 6.31 µM
21,Cc1ccc(-n2c(=O)[nH]c3cc(C(=O)NCc4ccccc4)ccc3c2=O)cc1,inactive
22,COc1ccc(-c2cc(C#N)nc(N3CCNCC3)n2)cc1,"inconclusive: 31.6 µM [inhibitor, single point]"
23,Cc1cc(C(=O)Nc2ncn[nH]2)ccc1[N+](=O)[O-],inactive
